In PubChem BioAssay AID256 (DTP/NCI, 2004):
Inconclusive results and toxic doses are left out. Some entries of the source have several records that differ or are many. They are shown here; other results are not. An entry can have further records. The values listed for one entry repeat one measurement in other runs, samples, wells, individuals or studies. A tag in brackets gives the origin of a value. A, B and so on number the origins entry by entry.

Tested on: CD2F1 mice, L1210 leukemia ip, survival T/C
Assay: NCI In Vivo Anticancer Drug Screen. Data for tumor model L1210 Leukemia (intraperitoneal) in CD2F1 (CDF1) mice
Conditions: higher = longer survival
Outline: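 Compound-dosed mice with transplantable tumor versus matched vehicle controls; endpoint ratio T/C reported.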

**Q.** Which T/C (endpoint: median survival time, dose: 400.0 mg/kg/injection, schedule: Q01DX009 (ip), vehicle: saline with Tween-80) does the source give for CCOC(=O)Nc1cc2c(c(N)n1)N=C(c1ccccc1)CO2 here?
**A.** The T/C was 122 % of control and 156 % of control.

**Q.** Which T/C (endpoint: median survival time, dose: 400.0 mg/kg/injection, schedule: Q01DX009 (ip), vehicle: Klucel (hydroxypropylcellulose) (HPC)) does the source give for CN(C)c1ccc2c(Nc3ccc(NS(C)(=O)=O)cc3)c3ccc(N(C)C)cc3nc2c1 here?
**A.** The T/C was 95 % of control and 180 % of control.

**Q.** With CN(C)CCNc1ccc(CO)c2sc3ccc(O)cc3c(=O)c12 as the molecule, how does the T/C (endpoint: median survival time, dose: 50.0 mg/kg/injection, schedule: Q01DX005 (ip), vehicle: saline with Tween-80) read?
**A.** The T/C was 118 % of control and 162 % of control.

**Q.** And the T/C (endpoint: median survival time, dose: 200.0 mg/kg/injection, schedule: Q01DX005 (ip), vehicle: saline with Tween-80)?
**A.** Its T/C is 103 % of control, 112 % of control, 157 % of control.

**Q.** How did the T/C (endpoint: mean survival time, dose: 12.5 mg/kg/injection, schedule: Q04DX003 (ip), vehicle: saline with Tween-80) turn out when CC([NH-])CC(C)[NH-].[Cl][Pt+2][Cl] (centres undefined) was run?
**A.** The T/C was 153 % of control [sample A] and 118 % of control [sample B].

**Q.** Which T/C (endpoint: median survival time, dose: 200.0 mg/kg/injection, schedule: Q01DX009 (ip), vehicle: water) does the source give for NC(=O)c1c[se]c(C2OC(CO)C(O)C2O)n1 (centres undefined) here?
**A.** Its T/C is 122 % of control and 198 % of control.

**Q.** How did the T/C (endpoint: mean survival time, dose: 25.0 mg/kg/injection, schedule: Q04DX003 (ip), vehicle: water) turn out when CC[C@](O)(C(=O)O)c1cc2n(c(=O)c1CO)Cc1cc3ccccc3nc1-2 was run?
**A.** Its T/C is 119 % of control and 178 % of control.

**Q.** What about the T/C (endpoint: median survival time, dose: 10.0 mg/kg/injection, schedule: Q04DX002 (ip), vehicle: saline) of the same molecule?
**A.** The T/C was 118 % of control, 124 % of control, 153 % of control.

**Q.** Which T/C (endpoint: median survival time, dose: 12.5 mg/kg/injection, schedule: Q01DX009 (ip), vehicle: saline with Tween-80) does the source give for Nc1nc(N)c2c(Cl)c(CNc3ccc(Cl)c(Cl)c3)ccc2n1 here?
**A.** The T/C was 110 % of control and 150 % of control.

**Q.** With CCCCNC(C)(C)C(SS)c1cccs1 (centres undefined) as the molecule, how does the T/C (endpoint: mean survival time, dose: 100.0 mg/kg/injection, schedule: Q01DX009 (ip), vehicle: other) read?
**A.** The T/C was 91 % of control and 153 % of control.

**Q.** For O=S(=O)(O)O.[NH-]C1CCCCCC1[NH-].[Pt+2] (centres undefined), which T/C (endpoint: mean survival time, dose: 6.25 mg/kg/injection, schedule: Q04DX003 (ip), vehicle: dextrose) is on record?
**A.** Its T/C is 109 % of control and 156 % of control.

**Q.** Which T/C (endpoint: median survival time, dose: 48.0 mg/kg/injection, schedule: Q01DX001 (ip), vehicle: saline with Tween-80) does the source give for CO[C@@]12[C@@H]3N[C@@H]3CN1C1=C(C(=O)C(N3CCCC3)=C(C)C1=O)[C@@H]2COC(N)=O here?
**A.** The T/C was 86 % of control and 172 % of control.

**Q.** CCc1nc(N)nc(N)c1-c1ccc(Cl)c(N=[N+]=[N-])c1 was tested. Which T/C (endpoint: median survival time, dose: 200.0 mg/kg/injection, schedule: Q01DX009 (ip), vehicle: distilled water + Tween-80) did it give?
**A.** Its T/C is 121 % of control and 158 % of control.

**Q.** And the T/C (endpoint: median survival time, dose: 400.0 mg/kg/injection, schedule: Q01DX009 (ip), vehicle: distilled water + Tween-80)?
**A.** The T/C was 111 % of control and 158 % of control.
